± gives the standard deviation of the averaged measurements. The list shows a part of the results.
test system: PfAP2-I AP2 domain 3 (GST-tagged); assay: gcPBM binding intensity (ln(normalized median fluorescence intensity)); higher = stronger DNA binding
In short: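 DNA-binding domains from P. falciparum, fused to GST and produced in E. coli, were put on an Agilent 4 × 180k double-stranded probe array for 1 h in 1× PBS holding 1% milk, 0.2 mg/ml BSA, 0.5% salmon testes DNA and 0.03% Triton X-100. Probes were primer-extended, 36 bp long and drawn from intergenic genomic regions, with negative controls included. After Alexa488 anti-GST antibody detection and a 488 nm scan, binding intensity was set as the highest Masliner-normalised natural-log median intensity across replicate spots of either probe orientation.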

Row | Sequence | gcPBM binding intensity (ln)
1 | TTTTATACATATTTTACACACTAAAATATACCTATA [CACACA_site6286] | 8.23 ± 0.71
2 | AAAAAAAAAAAAAAAAGTACAAAAAGAAGAAAAAAA [XGTACX_site6521] | 8.59 ± 0.5
3 | TTTTTTTTTTTTACGTGTACATAAATGTTAAGTAAT [XGTACX_site3901] | 8.2 ± 0.58
4 | AAAATATAGGTATGCACACACATATACTTCTGTGCA [CACACA_site1409] | 8.68 ± 0.49
5 | TTTTTTTTTTTTTTTTTTTTTTTATGTTCTTAAAAA [GTGCAC_negctrl_site62] | 8.07 ± 0.87
6 | TATAAATATTTATGTACACACATATACATGTTGAAT [CACACA_site5684] | 7.95 ± 0.43
7 | TTATATTCTTTTCTCTTTCTACTTTTTTTTTTTTTT [XGTACX_negctrl_site317] | 7.88 ± 0.52
8 | AAGAAAAACTTATATATATATATATATATATATATA [TGCATGCA_negctrl_site466] | 9.36 ± 0.85
9 | TCATACATGTATATGTGTACATATAATGTATATTCC [XGTACX_site6082] | 7.64 ± 0.38
10 | TTTTTTTAATGATATTGTACATTAATAAAAAATATG [XGTACX_site1719] | 7.76 ± 0.14
11 | TCTTTTTCAAGATGACGTACTTAGATTAATATAAAA [XGTACX_site3931] | 7.79 ± 0.4
12 | ATTTGATATATAATAATACACACTTACATAATTAAT [CACACA_site290] | 7.88 ± 0.43
13 | ATATGATCATTTTATCATTTTGCTTTTTCTTTTTTT [CACACA_negctrl_site1325] | 7.46 ± 0.64
14 | ATCGTGTTAAATGTTGTGCACATATAAATTACAAAA [GTGCAC_site9822] | 10.605 ± 0.007
15 | AATTTTGGAACGTGCACACATATGTAATATATATAT [CACACA_site3067] | 10.7 ± 0.085
16 | TAAATATATAATAAATGTACATATTAATATTATGGT [XGTACX_site1498] | 7.84 ± 0.46
17 | CAATGTTAACATATTACACACATATGTATTTATAAC [CACACA_site7314] | 7.88 ± 0.54
18 | AAAAAAAATTTAATTGCACACAGGAAAATATAATTT [CACACA_site3810] | 9.24 ± 0.18
19 | TAAATACAGAGGAAAATACACACGTATATATATAAA [CACACA_site3410] | 7.67 ± 0.6

Row | Sequence | gcPBM binding intensity (ln)
20 | TATAAATATACAAACACACATACAAACATATATATA [CACACA_site1120] | 8.11 ± 0.62
21 | TTAATACCCAGACACACACACACAAAATAAAATACA [CACACA_site7968] | 8.07 ± 0.18
22 | AAATTTCATGGGTATTGTACATAATTTTATTATATA [XGTACX_site4988] | 7.58 ± 0.42
23 | ACAAAACTGTCTTTCACACAGAAATAAAAAAAAAAA [CACACA_site5829] | 7.82 ± 0.77
24 | TGATAAGGATGTGAATTACTCAAAGGAAGTAATCAT [CACACA_negctrl_site1432] | 7.53 ± 0.7
25 | ACATAAGATGAAAAATGTACATTCAAAAAATGAAAT [XGTACX_site3227] | 7.62 ± 0.68
26 | TTTTAAATATGCCATACACACTACTATATAATAAAT [CACACA_site5119] | 7.81 ± 0.59
27 | AAAAAAAAAAAATATTGTAGAATATGATGACTTTGT [GTGCAC_negctrl_site554] | 7.47 ± 0.6
28 | ATTTTATTTTCATATGAACACACATATATATATTAT [CACACA_site8741] | 8.35 ± 0.45
29 | AACAACCAAAGGCACACACACAAAAAAAAAAATATA [CACACA_site399] | 8.26 ± 0.15
30 | CTGCGTTTAATATGCGTGCACCTTGGTTTTATATCT [GTGCAC_site9525] | 10.5 ± 0.18
31 | TTATACACAAAAAAAAAAATATATATATATATATAT [XGTACX_negctrl_site5] | 9.44 ± 0.13
32 | TGTTGTATTGAAGCTAAAAAATGAGGCAAAAAAAAA [CACACA_negctrl_site1189] | 8.3 ± 0.43
33 | TTTATATAATATAAATTTTTTTTGCAGTAATAAAAA [TGCATGCA_negctrl_site570] | 8.02 ± 0.52
34 | ACTTCAAAAAAAAAAAAATATATATATATATATTAT [GTGCAC_negctrl_site158] | 7.53 ± 0.33
35 | ATTTATGAGTAATACACACACTTGTGGATATATTAC [CACACA_site7735] | 7.62 ± 0.61
36 | TAAATATCAAGACACACACACAAAAGTGAATAAATA [CACACA_site7723] | 7.55 ± 0.49
37 | AGATATTATTTATATATTTATATATATATATAGATA [TGCATGCA_negctrl_site77] | 7.57 ± 0.26
38 | AGAGAAAAAAAAAATTGTACGTATGTAATAATATGC [XGTACX_site2981] | 8.14 ± 0.52

Row | Sequence | gcPBM binding intensity (ln)
39 | AAAGTAAAAGAAAGCACACACACATGGATTTATGTA [CACACA_site5997] | 7.87 ± 0.42
40 | TTCTTTTTAAATTACACACACATATATATATGTATA [CACACA_site3515] | 7.96 ± 0.4
41 | TATATATATGTATGTGGTACTTATATTATATACATA [XGTACX_site4550] | 7.89 ± 0.68
42 | TATTTACACCCATGCGCACACATAAATAAATAATAG [CACACA_site5350] | 9.14 ± 0.014
43 | CCATGTAGTGAATAGGTGCATATCAAAAAAAAAAAA | 10.3 ± 0.2
44 | ATACATATGGTGGATCGTACATATATATAATATGTA [XGTACX_site8631] | 7.64 ± 0.47
45 | ACAGAAAATAAAATTTGTACATATATAGAATAAAGA [XGTACX_site3014] | 7.88 ± 0.69
46 | ATAAAACATAAAAATCGTACAAAGGAGGATATAAGG [XGTACX_site420] | 8.37 ± 0.69
47 | AAAATGATGTTAATTACACACATCATCTCATAAACA [CACACA_site3017] | 7.57 ± 0.54
48 | TGGAGGTCAGTTCACAGTACCCAGAAAACTCTACGA [XGTACX_site2561] | 7.43 ± 0.37
49 | ATTATTTATTATTTCTGTACGTATAAAAATAACATT [XGTACX_site1671] | 8.2 ± 0.37
50 | TAACATTATATATATTGTACATAGTAAATATTATAT [XGTACX_site5421] | 7.38 ± 0.48
51 | ATTTAAATTATAAAATGTACATTTAACAAATTTTAT [XGTACX_site770] | 7.65 ± 0.49
52 | TGTAATCTGGAGAAAAGTACACAGTATCTGGTAGCT [XGTACX_site2039] | 7.76 ± 0.51
53 | TTTAATTATTAAATGGTGCACTTGAAATATAAAAAT | 11 ± 0.45
54 | CTTTTAATGGTGTAAAGTACTTTCTTAAGGTTCAAA [XGTACX_site8423] | 7.87 ± 0.47
55 | ATATATGGGGCGCAGGAAAAGAGTTTTGGAAATAAA [CACACA_negctrl_site1265] | 8.24 ± 0.51
56 | AAGTTATATAAAGGAACACACATTTGATTTTATTTT [CACACA_site6814] | 7.55 ± 0.64

— the supplement of paper PMC11417369
